Data published in patent US20120189670A1, “PHARMACEUTICAL COMPOSITIONS AND FORMULATIONS INCLUDING INHIBITORS OF THE PLECKSTRIN HOMOLOGY DOMAIN AND METHODS FOR USING SAME” (priority 2009, published 2012).

Key:
[1] = for degradation in Vehicle #3: 20 mg/mL
[2] = system: Panc-1 pancreatic cell line; experiment: Apoptosis, morphological assay, Panc-1; assay type: cell-based, human; conditions: Panc-1, 20 μmol/L
Description: AKT inhibition leads to cellular apoptosis.

Excipient solubility = assay type: physicochemical; conditions: thermodynamic from solid
Experimental: The solutions were rotated at room temperature for 24 hours. After rotation, if there was no evidence of precipitated compound, additional compound 104 was added and dissolution processes were repeated. […] The low solubilities found in the various plant based oils tested (avocado, vitamin E, soybean, sesame and safflower) were unexpected. the long hydrocarbon chain present in compound 104 would be expected to render it similar in polarity to the variety of nonpolar hydrocarbons present in plant based oils. […] HPLC Assay. […] The run time was 5 minutes and the injection volume was 2 μL.

HaCaT cells = experiment: Apoptosis (PARP cleavage) in HaCaT cells; assay type: cell-based, human; conditions: 10 μM
Description: (§1) […]. […] […].

A549 nsc lung cancer = experiment: Antitumor activity, oral gavage, A549 xenograft; assay type: in vivo, mouse; conditions: A549, 200 mg/kg BID × 10 D oral
PH domain of PDK1 [3] = target: T1, PH domain of PDK1 (Homo sapiens, UniProt O15530); experiment: SPR competitive binding, Ki, PDK1 PH domain
T1 sequence (O15530 459-550 limits assumed): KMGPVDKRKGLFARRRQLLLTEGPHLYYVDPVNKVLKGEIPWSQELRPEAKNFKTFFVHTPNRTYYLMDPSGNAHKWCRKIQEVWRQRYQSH

PC3 prostate cancer = experiment: Antitumor activity, oral gavage, PC3 xenograft; assay type: in vivo, mouse; conditions: PC3, 125 mg/kg BID × 5 D oral
PH domain of PDK1 [4] = target: T1, PH domain of PDK1; experiment: SPR direct binding, KD, PDK1 PH domain
Experimental: Binding assays using SPR and an ELISA competitive binding assay were used to measure the binding affinity (KD) of the compounds to all three PH domains. SPR was carried out as described above. […] Purified GST-PH domains were incubated with increasing concentrations of the compounds under analysis for about 4 hours in 0.2 M carbonate buffer pH 9.4 and were added to the 96-well plate and incubated overnight at 4° C. Following incubation, the plate was washed 4 times with phosphate buffered 0.9% NaCl (PBS), blocked with 3% bovine serum albumin (BSA) in PBS and 0.01% Tween for 1 hour, washed again 4 times with PBS and mouse monoclonal anti-glutathione-S-transferase antibody in 3% BSA (1:2000) was added for 1 hr at room temperature with shaking. The plate was washed 4 times with PBS and an anti-mouse IgG horseradish peroxidase coupled antibody (dilution 1:2000 in 3% BSA) was added for 1 hr. After 4 washes with PBS, 2,2′-azinobis[3-ethylbenzothiazoline-6-sulfonic acid]-diammonium salt (ABST) was added and the reaction was allowed to develop for 30 min.

HaCat-II,4 cells = experiment: Apoptosis (PARP cleavage) in HaCaT-II,4 cells; assay type: cell-based, human; conditions: 10 μM
Description: as §1

CCCCCCCCCCCCc1ccc(S(=O)(=O)Nc2nncs2)cc1 [Compound 104, 4-Dodecyl-N-(1,3,4-thiadiazol-2-yl)benzenesulfonamide]
degradation in Vehicle #3 ([1]; 4° C., 56 day period): No significant degradation
degradation in Vehicle #3 ([1]; 25° C., 56 day period): No significant degradation
degradation in Vehicle #3 ([1]; 40° C., between 28 and 42 days): significant degradation
time to reach the 90% threshold ([1]; Vehicle #3, 40° C.): 6 weeks
time to reach the 90% threshold ([1]; Vehicle #3, 60° C.): 1.1 weeks
time to reach the 90% threshold ([1]; Vehicle #3, 75° C.): 0.57 weeks
time to reach the 90% threshold ([1]; Vehicle #3, 100° C.): 0.3 weeks
shelf life ([1]; Vehicle #3, room temperature (25° C.), extrapolated Arrhenius plot): 2.4 years
Apoptosis at 20 μmol/L [2]: 40.0 ± 2.9/ %
solubility at 24 h (Excipient solubility; oil or lipid, in Acconon MC-8 EP/NF): 83700 µg/mL (≈ 204 mM)
solubility at 24 h (Excipient solubility; oil or lipid, in Aquaphor): < 10 µg/mL
solubility at 24 h (Excipient solubility; oil or lipid, in Avocado Oil/Vitamin E Oil (50/50) by % volume): 1400 µg/mL (≈ 3.42 mM)
solubility at 24 h (Excipient solubility; oil or lipid, in Capmul MCM L): 5300 µg/mL (≈ 12.9 mM)
solubility at 24 h (Excipient solubility; oil or lipid, in Captex 200P): 6800 µg/mL (≈ 16.6 mM)
solubility at 24 h (Excipient solubility; oil or lipid, in Captex 355 EP/NP): 4700 µg/mL (≈ 11.5 mM)
solubility at 24 h (Excipient solubility; oil or lipid, in Captex 810 D): 2400 µg/mL (≈ 5.86 mM)
solubility at 24 h (Excipient solubility; oil or lipid, in Gelucire 44/14): 35200 µg/mL (≈ 85.9 mM)
solubility at 24 h (Excipient solubility; oil or lipid, in Labrafil): 10400 µg/mL (≈ 25.4 mM)
solubility at 24 h (Excipient solubility; oil or lipid, in Labrasol): 53200 µg/mL (≈ 130 mM)
solubility at 24 h (Excipient solubility; oil or lipid, in Mineral Oil): < 10 µg/mL
solubility at 24 h (Excipient solubility; oil or lipid, in Safflower Oil): 1100 µg/mL (≈ 2.69 mM)
solubility at 24 h (Excipient solubility; oil or lipid, in Sesame Oil): 1200 µg/mL (≈ 2.93 mM)
solubility at 24 h (Excipient solubility; oil or lipid, in Soybean Oil): 1100 µg/mL (≈ 2.69 mM)
solubility at 24 h (Excipient solubility; organic solvent or mixture, in Acetone): 74000 µg/mL (≈ 181 mM)
solubility at 24 h (Excipient solubility; organic solvent or mixture, in Benzyl Alcohol): 78100 µg/mL (≈ 191 mM)
solubility at 24 h (Excipient solubility; organic solvent or mixture, in Dimethylacetamide (DMA)): 87400 µg/mL (≈ 213 mM)
solubility at 24 h (Excipient solubility; organic solvent or mixture, in Glycerol): 10 µg/mL (≈ 0.0244 mM)
solubility at 24 h (Excipient solubility; organic solvent or mixture, in N-methylpyrrolidone (NMP)): 161000 µg/mL (≈ 393 mM)
solubility at 24 h (Excipient solubility; in Water): < 1 µg/mL
apoptosis (HaCaT cells): 80%
Growth rate (A549 nsc lung cancer): 182 ± 47 mm^3/10 days
Ki (PH domain of PDK1 [3]): 5.5 µM
Growth rate (PC3 prostate cancer): 470 ± 121 mm^3/10 days
Kd (PH domain of PDK1 [4]): 90.1 µM
apoptosis (HaCat-II,4 cells): 60%

≈ marks a conversion by molar mass, not a printed value. Read-outs that look alike come from different tables or passages of the source.
